# Data: the supplement of paper PMC8728848
# The list shows a part of the results.
# Experiments:
# Assay in all cases: glycan array binding signal (z-score within array); higher = stronger binding
# Conditions in all cases: glycan notation: IUPAC condensed, linker removed
# [1] = biological target: Fuc(a1-2)Gal(b1-4)GlcNAc(b1-3)Gal(b1-4)GlcNAc(b1-3)Gal(b1-4)GlcNAc
# In short: (§1)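 Glycan array binding is given as a within-array Z-score, which can be read as non-binding when negative. The arrays, 3228 of them, came from the Consortium for Functional Glycomics database and were retained only where the protein sequence was available. Z-scores were averaged across arrays of the same protein sequence at different concentrations or buffers and across linkers.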
# [2] = biological target: Fuc(a1-2)Gal(b1-4)GlcNAc(b1-3)GalNAc
# In short: as §1
# [3] = biological target: Fuc(a1-2)Gal(b1-4)GlcNAc(b1-3)[Fuc(a1-2)Gal(b1-4)GlcNAc(b1-6)]GalNAc
# In short: as §1
# [4] = biological target: Fuc(a1-2)Gal(b1-4)GlcNAc(b1-3)[Fuc(a1-3)[Gal(b1-4)]GlcNAc(b1-6)]Gal(b1-4)Glc
# In short: as §1
# [5] = biological target: Fuc(a1-2)Gal(b1-4)GlcNAc(b1-6)GalNAc
# In short: as §1
# [6] = biological target: Fuc(a1-2)Gal(b1-4)GlcNAc6S
# In short: as §1
# [7] = biological target: Fuc(a1-2)Gal(b1-4)[Fuc(a1-3)]GlcNAc
# In short: as §1
# [8] = biological target: Fuc(a1-2)Gal(b1-4)[Fuc(a1-3)]GlcNAc(b1-2)Man(a1-3)[Fuc(a1-2)Gal(b1-4)[Fuc(a1-3)]GlcNAc(b1-2)Man(a1-6)]Man(b1-4)GlcNAc(b1-4)[Fuc(a1-6)]GlcNAc
# In short: as §1
# [9] = biological target: Fuc(a1-2)Gal(b1-4)[Fuc(a1-3)]GlcNAc(b1-2)[Fuc(a1-2)Gal(b1-4)[Fuc(a1-3)]GlcNAc(b1-4)]Man(a1-3)[Fuc(a1-2)Gal(b1-4)[Fuc(a1-3)]GlcNAc(b1-2)Man(a1-6)]Man(b1-4)GlcNAc(b1-4)GlcNAc
# In short: as §1
# [10] = biological target: Fuc(a1-2)Gal(b1-4)[Fuc(a1-3)]GlcNAc(b1-3)Gal(b1-4)[Fuc(a1-3)]GlcNAc
# In short: as §1
# [11] = biological target: Fuc(a1-2)Gal(b1-4)[Fuc(a1-3)]GlcNAc(b1-3)Gal(b1-4)[Fuc(a1-3)]GlcNAc(b1-3)Gal(b1-4)[Fuc(a1-3)]GlcNAc
# In short: as §1
# [12] = biological target: Fuc(a1-2)Gal(b1-4)[Fuc(a1-3)]GlcNAc(b1-3)GalNAc
# In short: as §1
# [13] = biological target: Fuc(a1-2)Gal(b1-4)[Fuc(a1-3)]GlcNAc(b1-3)[Neu5Ac(a2-6)Gal(b1-4)GlcNAc(b1-6)]Gal(b1-4)Glc
# In short: as §1
# [14] = biological target: Fuc(a1-2)Gal3S(b1-4)GlcNAc
# In short: as §1
# [15] = biological target: Fuc(a1-2)Gal6S(b1-3)GlcNAc
# In short: as §1
# [16] = biological target: Fuc(a1-2)Gal6S(b1-3)GlcNAc6S
# In short: as §1
# Fuc(a1-2)Gal6S(b1-4)Glc = biological target: Fuc(a1-2)Gal6S(b1-4)Glc
# In short: as §1
# [17] = biological target: Fuc(a1-2)Gal6S(b1-4)Glc6S
# In short: as §1
# Fuc(a1-2)[Gal(a1-3)]Gal = biological target: Fuc(a1-2)[Gal(a1-3)]Gal
# In short: as §1
# [18] = biological target: Fuc(a1-2)[Gal(a1-3)]Gal(b1-3)GalNAc
# In short: as §1
# [19] = biological target: Fuc(a1-2)[Gal(a1-3)]Gal(b1-3)GalNAc(b1-3)Gal(a1-4)Gal(b1-4)Glc
# In short: as §1
# [20] = biological target: Fuc(a1-2)[Gal(a1-3)]Gal(b1-3)GlcNAc
# In short: as §1
# [21] = biological target: Fuc(a1-2)[Gal(a1-3)]Gal(b1-3)GlcNAc(b1-2)Man(a1-3)[Fuc(a1-2)[Gal(a1-3)]Gal(b1-3)GlcNAc(b1-2)Man(a1-6)]Man(b1-4)GlcNAc(b1-4)GlcNAc
# In short: as §1
# [22] = biological target: Fuc(a1-2)[Gal(a1-3)]Gal(b1-3)GlcNAc(b1-2)Man(a1-3)[Fuc(a1-2)[Gal(a1-3)]Gal(b1-3)GlcNAc(b1-2)Man(a1-6)]Man(b1-4)GlcNAc(b1-4)[Fuc(a1-6)]GlcNAc
# In short: as §1
# [23] = biological target: Fuc(a1-2)[Gal(a1-3)]Gal(b1-3)GlcNAc(b1-3)GalNAc
# In short: as §1
# [24] = biological target: Fuc(a1-2)[Gal(a1-3)]Gal(b1-3)GlcNAc(b1-6)GalNAc
# In short: as §1
# [25] = biological target: Fuc(a1-2)[Gal(a1-3)]Gal(b1-4)Glc
# In short: as §1
# [26] = biological target: Fuc(a1-2)[Gal(a1-3)]Gal(b1-4)GlcNAc
# In short: as §1
# [27] = biological target: Fuc(a1-2)[Gal(a1-3)]Gal(b1-4)GlcNAc(b1-2)Man
# In short: as §1
# [28] = biological target: Fuc(a1-2)[Gal(a1-3)]Gal(b1-4)GlcNAc(b1-2)Man(a1-3)[Fuc(a1-2)[Gal(a1-3)]Gal(b1-4)GlcNAc(b1-2)Man(a1-6)]Man(b1-4)GlcNAc(b1-4)GlcNAc
# In short: as §1
binder,measurement,setting,value
rCnSL-proB (Clitocybe nebularis) (protein) PTFSPIFALLAFLPFGTLASLLPQTQLVFRINPNLPGPNDVFVGYRGTNNVVGAIYERDGIKDTPMNNGADAELGPGSYITDDLFTAQIFASGSAGNNPGTTATVCKIYADGVQWRGAPKGYLPVLYFGNGQAAEQTRQTYLQGLDIPGTAIRFANLAKTPNQGPTAPRQMVVPSGGLQTLLKASCFPANHAALPQVLSYFNVRAALPPGWNIRTGPEFPNWTN,glycan array binding signal (z-score),[1],-0.076
same,glycan array binding signal (z-score),[2],-0.693
same,glycan array binding signal (z-score),[3],-0.259
same,glycan array binding signal (z-score),[4],0.483
same,glycan array binding signal (z-score),[5],-0.457
same,glycan array binding signal (z-score),[6],-0.44
same,glycan array binding signal (z-score),[7],0.228
same,glycan array binding signal (z-score),[8],0.321
same,glycan array binding signal (z-score),[9],1.38
same,glycan array binding signal (z-score),[10],0.072
same,glycan array binding signal (z-score),[11],0.04
same,glycan array binding signal (z-score),[12],0.251
same,glycan array binding signal (z-score),[13],-0.539
same,glycan array binding signal (z-score),[14],-0.528
same,glycan array binding signal (z-score),[15],-0.725
same,glycan array binding signal (z-score),[16],0.11
same,glycan array binding signal (z-score),Fuc(a1-2)Gal6S(b1-4)Glc,-0.455
same,glycan array binding signal (z-score),[17],-0.918
same,glycan array binding signal (z-score),Fuc(a1-2)[Gal(a1-3)]Gal,-0.602
same,glycan array binding signal (z-score),[18],0.198
same,glycan array binding signal (z-score),[19],-0.397
same,glycan array binding signal (z-score),[20],-0.113
same,glycan array binding signal (z-score),[21],-0.043
same,glycan array binding signal (z-score),[22],0.259
same,glycan array binding signal (z-score),[23],-0.457
same,glycan array binding signal (z-score),[24],-0.311
same,glycan array binding signal (z-score),[25],-0.068
same,glycan array binding signal (z-score),[26],-0.77
same,glycan array binding signal (z-score),[27],-0.166
same,glycan array binding signal (z-score),[28],-0.255
